Results reported in PMC12136788.
The list shows a part of the results.

B1: ENSG00000136451:be:win_1801|3pUTR|ENSG00000136451|bound_else_gene|NA|bound_elsewhere_windowed (ssRNA)
RNA: GGGAGUUCUACAGUCCGACGAUCGCUUAAACAGGAUAGUAGUUGGCAAGAUGAAAUGCCAGAAUUAAAACCAAUCAUAAGUAGAACCCACUUCAAAAUAAAAAAACAGCAUUACUAUUUCUAAUCCCAAGGAAUCACUUUAUUCAACAGAGGAUUGAGCAUCA
B2: chr4:103158754:103158855:-|CDS|ENSG00000138778|msi1|FALSE|unique (ssRNA)
RNA: GGGAGUUCUACAGUCCGACGAUCGGAGAAAACACGUGAGGUUCAAGAAAGACUAAAUGAGAUGGAACAGCUGAAGGAACAAUUAGAAAAUAGAGAUUCUACGCUGCAAACUGUAGAAAGGGAGAAAACACUGAUUACUGAGAACAACAGAGGAUUGAGCAUCA
B3: chr15:19964665:19964972:-|CDS|ENSG00000188403|control|control|control (ssRNA)
RNA: GGGAGUUCUACAGUCCGACGAUCAUGCACUGGGUGUGCCAGGCCCAUGCACAAGGGCUUGAGUGGAUGGGAUUGGUGUGCCCUAGUGAUGGCAGCACAAGCUAUGCACAGAAGUUCCAGGGCAGAGUCACCAUAACCAGGGACCAACAGAGGAUUGAGCAUCA
B4: chr4:168926953:168927063:+|3pUTR|ENSG00000129116|msi1_unk|FALSE|overlapping (ssRNA)
RNA: GGGAGUUCUACAGUCCGACGAUCCAAAAGAGUUUUCUAACAAGGUUAAUACCUUAGUUCUUAACAUUUUUUUUCUUUAUGUGUAGUGUUUUCAUGCUACCUUGGUAGGAAACUUAUUUACAAACCAUAUUAAAAGGCUAAUUUCAACAGAGGAUUGAGCAUCA
B5: chr14:100881274:100881386:-|CDS|ENSG00000254656|unk|FALSE|unique (ssRNA)
RNA: GGGAGUUCUACAGUCCGACGAUCCGCAGGCAGCAGCAUCACGACAGCCAUCACCCAGCUGCUCACCCAGAUGCCCGCUCUCGUAGGUGCAAACACCAUCCCAGCCCAGGAGCUGGCUGAGCUGUUCCUGGGCCCUGGCCGCUGCAACAGAGGAUUGAGCAUCA
B6: chr1:45693489:45693605:+|CDS|ENSG00000159596|unk|FALSE|unique (ssRNA)
RNA: GGGAGUUCUACAGUCCGACGAUCAAUCCCCUUCGUUGCUCCACCACUGGUCAUGCUGAUGACAAAAACUUAUAUUCCCAUAUUAGCUUUUACUCAGAUGGCUUAUGGAGCCAGUUUCCUAUCUUUCUUGGGUGGGAUCAGAUGCAACAGAGGAUUGAGCAUCA
B7: chr2:5695263:5695412:+|3pUTR|ENSG00000176887|msi1_unk|total|mutant (ssRNA)
RNA: GGGAGUUCUACAGUCCGACGAUCUGGUGAUACCGACCUCAGAGCUGUUAUCUCCGUUUAAAGAUUGUAUAUGUACUGUACUACCGCCGGACUUUAUGUAUCUCAUACGCUGUGAUGUGGAUGGGGCCCCAGAUGGAAGGUUUGCAACAGAGGAUUGAGCAUCA
B8: chr10:92050442:92050545:-|3pUTR|ENSG00000107864|unk|total|mutant (ssRNA)
RNA: GGGAGUUCUACAGUCCGACGAUCAUGAAGGCCUGCCCGCACCCGCGUGGACAUUUUUCCCGCAUUCACCCUUGGGCUGCAGACCGUAAUAUAUAAACACACACAAUGAUUGCAAGACUAUGUAAAUCUUUUUUUAAUCUUCUUCAACAGAGGAUUGAGCAUCA
B9: chr4:24540214:24540319:-|CDS|ENSG00000109606|unk|FALSE|unique (ssRNA)
RNA: GGGAGUUCUACAGUCCGACGAUCUACUUUGUCACAUUUUUGCUUGCUUAAGGCACCGUGUCUAAUAGAUUGUCUUUUACCACUAGCUCCUGAAACUCUGAUGAGAGCCCUGGAACUUUUGAAUUACCUGGCUGCUUUAAAUGACAACAGAGGAUUGAGCAUCA
B10: chr4:175632990:175633131:-|3pUTR|ENSG00000150625|msi1|total|mutant (ssRNA)
RNA: GGGAGUUCUACAGUCCGACGAUCGUUGACACUUUUGGCUUUUAUUUCUGGUAUCCGAGUUUGUAUUUUCACAGAGUGCUUUGCCGCAGGCAUUACAAUUAAUCUGUUUUGUACAUAAAUGUGCCAACAGCUUGAUGGUGGCGUCAACAGAGGAUUGAGCAUCA
B11: chr11:35231115:35231675:+|3pUTR|ENSG00000026508|msi1|total|mutant (ssRNA)
RNA: GGGAGUUCUACAGUCCGACGAUCCAGGACAAGGUUCAAAAUGGUUACAACAGCCUCUACCUGUCGCCCCAGGGAGAAAGGGGCCGUGAUACAAGUCUCACCGCCAGAGAUGGUUUUCCACUCCUUCCCGAUAUUCCCAAAAAGCAACAGAGGAUUGAGCAUCA
B12: chr17:142788:147440:-|three_prime_utr|ENSG00000272636|control|control|control (ssRNA)
RNA: GGGAGUUCUACAGUCCGACGAUCGAGACCUCAGCACCUGCCCAGGGGAAGGGGACACGCCCAUCUGGGAGCAAAGACCCUUCUAGAGGCCAGCCCCGGCUGAGAGGACAGGAGUGUGGGGGCGCCUUGGCGGACAGUGGGAACCAACAGAGGAUUGAGCAUCA
B13: chr5:175441761:175443099:-|CDS|ENSG00000184845|control|control|control (ssRNA)
RNA: GGGAGUUCUACAGUCCGACGAUCGAAGGCAUUUUCAACCCUCUUAGGAUGCUACAGACUUUGCCCUGCGACGAAUAAUGCCAUAGAGACGGUGAGUAUCAAUAACAAUGGGGCCGCGAUGUUUUCCAGCCAUCAUGAGCCACGCAACAGAGGAUUGAGCAUCA
B14: chr5:16781720:16781826:-|CDS|ENSG00000145555|unk|total|mutant (ssRNA)
RNA: GGGAGUUCUACAGUCCGACGAUCCUUCACAGCCCCAUCAUGGAAGCUUUCGGCAAUGCGAAGACCGUGUACAACAACAACUCCCGUCGCUUUGGGAAGUUUGUUCAGCUGAACAUCUGUCAGAAAGGAAAUAUUCAGGGCGGGCAACAGAGGAUUGAGCAUCA

These binders were tested against MSI1 full-length (mouse, UniProt Q61474 1-362) (assay: nsRBNS (natural sequence RNA bind-n-seq); RBNS binding buffer (assumed for nsRBNS): 25 mM Tris pH 7.5, 150 mM KCl, 3 mM MgCl2, 0.01% Triton X-100, 500 ug/ml BSA, 20 U/ml SUPERase-In, 4 C; UNK is unkempt and MSI1 is Musashi-1; names of the RNAs are library labels; protein concentration not given here; high values mean tight binding).
Sequence of UniProt Q61474 (Q61474 whole entry): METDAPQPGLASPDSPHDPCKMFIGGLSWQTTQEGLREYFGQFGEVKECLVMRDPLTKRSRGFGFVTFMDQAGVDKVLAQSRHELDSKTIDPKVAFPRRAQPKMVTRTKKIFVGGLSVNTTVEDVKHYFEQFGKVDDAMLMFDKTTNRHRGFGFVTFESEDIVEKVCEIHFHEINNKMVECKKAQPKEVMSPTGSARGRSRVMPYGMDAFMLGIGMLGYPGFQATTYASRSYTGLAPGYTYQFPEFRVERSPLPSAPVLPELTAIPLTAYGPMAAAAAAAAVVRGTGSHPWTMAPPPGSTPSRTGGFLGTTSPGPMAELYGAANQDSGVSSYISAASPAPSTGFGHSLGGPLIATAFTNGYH
B1 showed a binding signal of 14.4 enrichment R.
B2 gave a binding signal of 5.59 enrichment R.
With B3 the binding signal was 0.532 enrichment R.
For B4, the binding signal was 20 enrichment R.
Binder B5 has a binding signal of 0.366 enrichment R.
Work on B6 yielded a binding signal of 0.499 enrichment R.
B7 gave a binding signal of 0.588 enrichment R.
B8 was tested, and the binding signal was 1.02 enrichment R.
With B9 the binding signal was 0.238 enrichment R.
In the case of B10, the binding signal is reported as 0.286 enrichment R.
Work on B11 yielded a binding signal of 0.427 enrichment R.
B12 showed a binding signal of 0.387 enrichment R.
In the case of B13, the binding signal is reported as 0.562 enrichment R.
B14 gave a binding signal of 0.441 enrichment R.
